Out of some 310,000 compounds screened, about 14,000 (4.5%) showed an effect of 50% or more. Effects have a minus sign here. This is one part of the list.
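Also: peak tail current of the secondary pulse compared with the same well before compound.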

human ether-à-go-go-related gene (hERG) potassium channel, sequence (Q12809 whole entry, looked up): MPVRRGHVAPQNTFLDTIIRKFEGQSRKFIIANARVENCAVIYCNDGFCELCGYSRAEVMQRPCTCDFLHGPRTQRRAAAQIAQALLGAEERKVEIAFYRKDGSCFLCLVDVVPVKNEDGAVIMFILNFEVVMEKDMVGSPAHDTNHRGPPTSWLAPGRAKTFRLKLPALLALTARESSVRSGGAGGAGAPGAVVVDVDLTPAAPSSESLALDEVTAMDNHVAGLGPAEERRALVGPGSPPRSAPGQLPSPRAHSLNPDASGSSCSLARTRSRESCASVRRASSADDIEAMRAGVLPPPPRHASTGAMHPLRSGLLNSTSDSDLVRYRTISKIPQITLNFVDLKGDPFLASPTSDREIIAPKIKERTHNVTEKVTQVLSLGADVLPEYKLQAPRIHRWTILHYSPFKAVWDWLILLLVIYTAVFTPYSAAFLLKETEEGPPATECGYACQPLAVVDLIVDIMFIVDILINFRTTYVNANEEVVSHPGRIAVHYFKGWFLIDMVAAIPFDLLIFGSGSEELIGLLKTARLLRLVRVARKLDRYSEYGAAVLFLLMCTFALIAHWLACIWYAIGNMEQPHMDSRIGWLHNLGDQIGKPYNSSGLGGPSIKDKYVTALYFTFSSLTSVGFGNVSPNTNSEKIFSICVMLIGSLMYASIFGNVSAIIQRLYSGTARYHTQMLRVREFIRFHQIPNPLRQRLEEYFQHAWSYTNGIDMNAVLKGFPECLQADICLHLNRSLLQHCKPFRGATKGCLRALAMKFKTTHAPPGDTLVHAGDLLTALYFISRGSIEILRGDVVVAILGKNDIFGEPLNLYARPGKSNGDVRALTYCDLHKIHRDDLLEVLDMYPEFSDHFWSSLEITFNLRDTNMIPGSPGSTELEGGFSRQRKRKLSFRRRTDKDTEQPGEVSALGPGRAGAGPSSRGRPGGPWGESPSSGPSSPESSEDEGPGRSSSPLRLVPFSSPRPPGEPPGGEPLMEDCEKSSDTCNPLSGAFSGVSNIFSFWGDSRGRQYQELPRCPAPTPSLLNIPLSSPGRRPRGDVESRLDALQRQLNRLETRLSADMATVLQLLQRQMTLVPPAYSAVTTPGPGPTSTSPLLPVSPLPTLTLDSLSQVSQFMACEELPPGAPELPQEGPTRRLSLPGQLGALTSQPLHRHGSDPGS

This assay addresses human ether-à-go-go-related gene (hERG) potassium channel (human, UniProt Q12809). Put plainly: primary screen, population patch clamp on CHO cells stably expressing hERG.
In the case of `CCCCN(C)Cc1c(O)ccc2c(=O)c(-c3ccccc3OC)coc12`, the “hERG current change (%, negative = inhibition) at 10uM” value was 9.27%.
For `Brc1cnc2nc(SCc3nc4ccccc4[nH]3)[nH]c2c1`, the “hERG current change (%, negative = inhibition) at 10uM” value was 11.3%.
In the case of `NC(=O)c1ccc(NC(=O)CCCN2C(=O)NC3(CCCC3)C2=O)cc1`, the “hERG current change (%, negative = inhibition) at 10uM” value is listed as -4.73%.
As for `CCOC(=O)c1ccc(NC(=O)CCOc2ccccc2)cc1`, the “hERG current change (%, negative = inhibition) at 10uM” value is recorded as -0.298%.
As to `C/C(=N\NC(=O)c1cccc([N+](=O)[O-])c1)c1cccc(NC(=O)C2CC2)c1`, the “hERG current change (%, negative = inhibition) at 10uM” value was found to be 3.52%.
As for `CC(C)CC1Nc2ncnc(N3CCCCC3)c2N(Cc2ccc(Br)cc2)C1=O.O=C(O)C(F)(F)F` (centres unmarked), the “hERG current change (%, negative = inhibition) at 10uM” value is -3.39%.
The same measure for `Cc1ccc(C2CC(=O)C(C=NCCN3CCN(C(=O)Cc4ccccc4)CC3)=C(O)C2)cc1` (centres unmarked): -42.8%; for `COc1ccc(-c2nc3ccc(C(=O)NCC(OC)OC)cc3nc2-c2ccc(OC)c(OC)c2)cc1OC`: -2.59%; for `CNC(=O)c1ccc(NC(=O)c2ccc3c(=O)n4c(nc3c2)CCC4)cc1`: 15.5%.
Consider `O=C(Nc1ccon1)c1ccccc1F`, for which the “hERG current change (%, negative = inhibition) at 10uM” value is listed as -3.99%.
On to `O=C(NCCCN1CCCC1=O)c1c(O)nc2sccn2c1=O`, for which the “hERG current change (%, negative = inhibition) at 10uM” value was 5.04%.
In the case of `CSc1ccccc1N=CC1=C(O)CC(C)(C)CC1=O`, the “hERG current change (%, negative = inhibition) at 10uM” value was -20.7%.
In the case of `CC1CCN(C(=O)C(C)c2ccc([N+](=O)[O-])cc2)CC1` (centres unmarked), the “hERG current change (%, negative = inhibition) at 10uM” value is -3.41%.
Next, `CCOC(=O)c1c(C)c(C(=O)N2CCN(c3ccc(F)cc3)CC2)c(C)n1C`: -39.2%.
On to `CC(C)c1cc(C(=O)Nc2ccc3c(c2)OCO3)no1`, for which the “hERG current change (%, negative = inhibition) at 10uM” value was -2.19%.
For the compound `Cc1ccc(C(=O)N/C(=C\C=C\c2ccccc2)C(=O)NCc2ccco2)cc1`, the “hERG current change (%, negative = inhibition) at 10uM” value is -50.3%.
Next, `O=C1CC(N2CCN(c3ccccc3)CC2)C(=O)N1c1ccc2c(c1)OCCO2` (centres unmarked): 10.6%; `CCOc1ccc2nc(NC(=O)C3CSC4(C)CCC(=O)N34)sc2c1` (centres unmarked): -15.7%.
As to `COc1ccc(C(=O)N/N=C(\N)c2cc3ccccc3oc2=O)cc1`, the “hERG current change (%, negative = inhibition) at 10uM” value turned out to be 24.2%.
Next, `O=C(Cn1c(NCCO)nc2ccccc21)NCC1CCCO1` (centres unmarked): 39.7%.
The same measure for `CCOc1ccc(NC(=O)CCC(=O)N/N=C2\CCCc3ccccc32)cc1`: 2.38%; for `CC(=O)OCc1c(F)c(F)c(-n2nc(C)cc2C)c(F)c1F`: -0.234%; for `Cc1cccc(C)c1NC(=O)CSc1nnc(-c2ccoc2C)n1CCc1ccccc1`: -46.3%.
In the case of `COc1cc(NC(=S)NCCCN(C)C)c(OC)cc1NC(=O)c1ccco1`, the “hERG current change (%, negative = inhibition) at 10uM” value worked out at 7.61%.
In the case of `Cn1c(=O)c2c(nc(SCC(=O)N3CCc4ccccc4C3)n2C)n(C)c1=O`, the “hERG current change (%, negative = inhibition) at 10uM” value is -6.55%.
The same measure for `CN(C)c1ccc(N2C(=NC(=O)CCc3ccccc3)SC3CS(=O)(=O)CC32)cc1` (centres unmarked): -22%; for `CCOC(=O)c1nc(Nc2ccc(N3CCOCC3)cc2)c2ccccc2n1`: 8.05%.
For the compound `COc1ccccc1N(CC(=O)N/N=C/c1ccc(C(=O)O)cc1)S(=O)(=O)c1ccc(C)cc1`, the “hERG current change (%, negative = inhibition) at 10uM” value came to 4.61%.
As for `CCOC(=O)/C(C#N)=C/c1cn(CCC(=O)O)nc1-c1ccc(Br)cc1`, the “hERG current change (%, negative = inhibition) at 10uM” value stood at 11.7%.
Take `O=C(Cn1c(=O)c2cccn2c2ccccc21)Nc1cc(F)ccc1F`: the “hERG current change (%, negative = inhibition) at 10uM” value was 12%.
Turning to `CCCNC(=O)c1cc2c(C(F)(F)F)nn(C)c2s1`, the “hERG current change (%, negative = inhibition) at 10uM” value is listed as 10.5%.
Next, `O=C(c1ccco1)N(Cc1ccc([N+](=O)[O-])cc1)c1ccc(Cl)cc1`: -36.5%; `O=C(O)c1ccc(CNC(=O)c2ccc(Br)o2)cc1`: -5.15%.
The same measure for `C=CCN1CCN(c2ccncc2S(=O)(=O)N2CCOCC2)CC1`: -13%; for `COc1ccc(-c2cnc(OC(C)(C)C)nc2OC(C)(C)C)cc1OC`: 11%.
Turning to `Cc1ccc(S(=O)(=O)N2CCc3ccccc3C2)cc1`, the “hERG current change (%, negative = inhibition) at 10uM” value came out at 13%.
Next, `Cc1[nH]c2ccc(C(=O)OC(C)C(=O)NCc3ccccc3)cc2c1C` (centres unmarked): -10.1%; `O=C(N/N=C/c1cccc([N+](=O)[O-])c1)C1COc2ccccc2O1` (centres unmarked): -29.1%; `CC(C)CC(=O)N1CCN(Cc2ccccc2Br)CC1`: -5.99%.
On to `O=C(c1ccccc1)N1CCC(=O)N(C(CO)Cc2ccccc2)CC1` (centres unmarked), for which the “hERG current change (%, negative = inhibition) at 10uM” value is -9.39%.
The same measure for `CCC(=O)c1ccccc1OCCCN1CCC(Cc2ccccc2)CC1.O=C(O)C(=O)O`: -78.5%; for `COc1ccc(S(=O)(=O)NCC2CCCN(Cc3ccccc3C)C2)cc1` (centres unmarked): -12.3%; for `CC1CCCN(c2nc3c(c(=O)[nH]c(=O)n3C)n2CCCc2ccccc2)C1` (centres unmarked): -48.5%.
With `Cc1cc(SCc2cccc([N+](=O)[O-])c2)nc(=O)[nH]1`, the “hERG current change (%, negative = inhibition) at 10uM” value is on record as 11.4%.
Regarding `COc1ccccc1CN(Cc1cc2cc3c(cc2[nH]c1=O)OCCO3)Cc1nnnn1Cc1ccco1`, the “hERG current change (%, negative = inhibition) at 10uM” value was 7.49%.
On to `O=C(CCCc1c[nH]c2ccccc12)NCc1cccs1`, for which the “hERG current change (%, negative = inhibition) at 10uM” value was found to be 40.5%.
The same measure for `O=C(CSc1nc(-c2ccco2)cc(C(F)(F)F)n1)NCCc1ccccc1`: -0.684%; for `O=C(Nc1nc2c(Br)cccc2s1)C1CC1`: -17.9%.
Next, `COCCCn1c(=O)c2sccc2n2c(CCCC(=O)NCc3ccc(F)cc3)nnc12`: -41.6%.
Take `CCCN(CC(=O)Nc1ccc(F)c(F)c1F)Cc1cc(=O)n2ccsc2n1`: the “hERG current change (%, negative = inhibition) at 10uM” value was -25.4%.
The same measure for `O=C(O)CCCCCNC(=O)c1ccncc1`: -3.45%; for `CSc1sc(C(=O)NNC(=O)c2ccc(Cl)cc2)c2c1C=CCC2`: 1.18%; for `[O-][N+]1=C(c2cccs2)CN(O)C1`: 8.57%.
Next, `CC1=C(C(=O)Nc2ccc(C)cc2C)C(c2cccc(Cl)c2)n2nc(C(=O)OC(C)C)nc2N1` (centres unmarked): -3.86%.
`C=CCOc1ccc(S(C)(=O)=O)cc1`: the “hERG current change (%, negative = inhibition) at 10uM” value is given as -3.44%.
With `CCn1c(CCC(N)=O)nnc1SCC(=O)Nc1cccc(S(=O)(=O)N2CCCC2)c1`, the “hERG current change (%, negative = inhibition) at 10uM” value is reported as -4.93%.

For the origin of these results see PMC4336329 (PLoS ONE, 2015).
